Consider 1 molecule from US20110028422A1 (priority 2007, published 2011).

The structures appear in SMILES notation.

The subject of this assay is Rad51-related DNA repair.

For the molecule `Cc1cn(-c2cc(NC(=O)c3ccc(C)c(Nc4nccc(-c5cccnc5)n4)c3)cc(C(F)(F)F)c2)cn1` [Nilotinib, 4-methyl-3-[[4-(3-pyridinyl)-2-pyrimidinyl]amino]-N-[5-(4-methyl-1H-imidazol-1-yl)-3-(trifluoromethyl)phenyl]benzamide], the “CLB-induced Rad51-related DNA repair” value is “inhibit”.
